{
  "source": "PubChem BioAssay AID1508642",
  "about": "(National Center for Advancing Translational Sciences (NCATS), 2021)",
  "note": "Screen size: about 43,000 compounds; about 200 (0.47%) were called active. Roughly 12% stayed inconclusive and do not appear here. The call rests on the fitted dose curve; in most records, active means well fitted cell-killing curve with a large enough effect; inconclusive means small, poorly fitted or top-dose-only effect, or effect the other way; inactive means flat fitted curve, though single readings scatter. The list shows a part of the results. On the % scale 0 is the no-effect control and ±100 the full control effect.",
  "data": [
    {"test": "Cell viability qHTS assay in S16 Pmp22-F2sN cells; further: nearly all actives have a fitted effect of over 65% in size", "settings": "S16 Pmp22-F2sN Schwann cells viability, CellTiter-Glo, 24 h; series mostly up to 57.5 µM; activity change, negative = cytotoxicity: at the top concentration", "procedure,_shortened": "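Viability was measured by CellTiter-Glo luminescence (15 min, room temperature). This followed 24 h at 37 °C of compound exposure (23 nL pin transfer) in S16 Pmp22-F2sN Schwann cells, 500-1,000 per well.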", "values": [
      {"smiles": "Cc1cccc(NC(=O)c2sc(-n3nc(C)c(Cc4ccc5c(c4)OCO5)c3C)nc2C)c1C", "activity change, negative = cytotoxicity": "inactive: -15.4%"},
      {"smiles": "COc1ccc(-c2noc(CSc3nnc(C)n3-c3ccc(OC)cc3)n2)cc1", "activity change, negative = cytotoxicity": "inactive: -10.9%"},
      {"smiles": "COc1ccccc1NC(=O)c1sc2nc(N3CCOCC3)c3c(c2c1N)CC(C)(C)OC3", "activity change, negative = cytotoxicity": "inactive: 4.98%"},
      {"smiles": "COc1ccc(-c2cc(C)no2)cc1S(=O)(=O)NC(C)C", "activity change, negative = cytotoxicity": "inactive: -1.91%"},
      {"smiles": "CCCOC(=O)CSc1ncnc2sc3c(c12)CCC(C)C3", "note": "(stereo unspecified)", "activity change, negative = cytotoxicity": "inactive: 1.22%"},
      {"smiles": "COc1cccc(NC(=O)N2CCN3CCCCC3C2)c1", "note": "(stereo unspecified)", "activity change, negative = cytotoxicity": "inactive: 1.15%"},
      {"smiles": "COc1cc(OC)cc(N2C(=O)N(CC(=O)c3ccc(F)cc3)c3ccccc3S2(=O)=O)c1", "activity change, negative = cytotoxicity": "inactive: 2.31%"},
      {"smiles": "COc1ccc(CN2CCc3nc(SCC(=O)Nc4cc(C)cc(C)c4)[nH]c(=O)c3C2)cc1", "activity change, negative = cytotoxicity": "inactive: 0.309%"},
      {"smiles": "COc1ccc(-c2noc(Cn3c(=O)c4ccccc4n(CC(=O)Nc4cccc(OC)c4)c3=O)n2)cc1", "activity change, negative = cytotoxicity": "inactive: -3.11%"},
      {"smiles": "CCOC(=O)c1ccc(NC(=O)N2CCOc3ccccc32)cc1", "activity change, negative = cytotoxicity": "inactive: 4.82%"},
      {"smiles": "COCCCNC(=O)C(=O)Nc1c2c(nn1-c1cccc(Cl)c1)CSC2", "activity change, negative = cytotoxicity": "inactive: -3.64%"},
      {"smiles": "Cc1ccccc1-c1nnc(CN2CCN(c3ccccn3)CC2)o1", "activity change, negative = cytotoxicity": "inactive: 4.61%"},
      {"smiles": "Cc1cc(Br)ccc1NC(=O)C1CCN(S(=O)(=O)c2cccc3nsnc23)CC1", "activity change, negative = cytotoxicity": "inactive: -2.53%"},
      {"smiles": "CCCCCSc1nc2sc3c(c2c(=O)n1-c1ccccc1)CCN(C(C)=O)C3", "activity change, negative = cytotoxicity": "inactive: -2.34%"},
      {"smiles": "Cc1nn(C(=O)c2ccccc2F)c(C)c1S(=O)(=O)N1CCCCCC1", "activity change, negative = cytotoxicity": "inactive: -8.05%"},
      {"smiles": "COc1ccc(-c2oc3ncn4nc(COc5c(C)cccc5C)nc4c3c2-c2ccc(OC)cc2)cc1", "activity change, negative = cytotoxicity": "inactive: 14%"},
      {"smiles": "CCOc1ccccc1NC(=O)N1CCc2cc(S(=O)(=O)N3CCC(C)CC3)ccc21", "activity change, negative = cytotoxicity": "inactive: 1.41%"},
      {"smiles": "CNC(=O)Cn1cc(S(=O)(=O)Cc2ccccc2F)c2ccccc21", "activity change, negative = cytotoxicity": "inactive: 7.67%"},
      {"smiles": "COC(=O)c1c(-c2cccs2)csc1NC(=O)COc1c(C)ccc(C)c1C", "activity change, negative = cytotoxicity": "inactive: -5.45%"},
      {"smiles": "CCOc1ccccc1CNC(=O)C1CCCN(c2ncnc3onc(-c4ccc(F)cc4)c23)C1", "note": "(stereo unspecified)", "activity change, negative = cytotoxicity": "inactive: 3.14%"},
      {"smiles": "Cc1ccc(CN2CCc3nc(N4CCN(c5ccccc5F)CC4)ncc3C2)cc1C", "activity change, negative = cytotoxicity": "inactive: -3.3%"},
      {"smiles": "COc1cccc(-c2cc(C(F)(F)F)nc(NCCc3ccccc3)n2)c1", "activity change, negative = cytotoxicity": "inactive: 13.7%"},
      {"smiles": "Cc1nc2c(C(=O)NCCc3ccc(Cl)cc3)c[nH]n2c(=O)c1Cc1ccc(Cl)cc1", "activity change, negative = cytotoxicity": "inactive: 4.59%"},
      {"smiles": "O=C(CSc1nnc(-c2ccc(O)cc2)o1)c1ccc(Br)cc1", "activity change, negative = cytotoxicity": "inactive: 1.16%"},
      {"smiles": "Cc1ccc2c(c1)-c1nc(-c3ccc4c(c3)NC(=O)CO4)cc(-c3ccc(F)cc3)c1CO2", "activity change, negative = cytotoxicity": "inactive: 22.7%"},
      {"smiles": "CCNC(=O)c1cnc2c(-c3ccccc3)c(C)nn2c1C", "activity change, negative = cytotoxicity": "inactive: 7.48%"},
      {"smiles": "CNC(=O)CN1C(=O)c2cccnc2Sc2ccccc21", "activity change, negative = cytotoxicity": "inactive: 0.0311%"},
      {"smiles": "CC(C)CC1N=C2c3ccccc3N=C(SCC(=O)NCCc3ccc(Cl)cc3)N2C1=O", "note": "(stereo unspecified)", "activity change, negative = cytotoxicity": "inactive: -0.518%"},
      {"smiles": "CC(C)CCn1c(=O)c2sccc2n2c(CCCC(=O)NC(C)C)nnc12", "activity change, negative = cytotoxicity": "inactive: -0.0957%"},
      {"smiles": "COc1ccc(-c2nc3cc(C)ccn3c2NC(=O)c2ccc(C)c(C)c2)cc1", "activity change, negative = cytotoxicity": "inactive: 3.91%"},
      {"smiles": "COc1cc(Cl)c(C)cc1NC(=O)c1cc2c(Cl)nc3ccc(C)cc3c2s1", "activity change, negative = cytotoxicity": "inactive: -16%"},
      {"smiles": "Cc1cccc(-c2nc3c(c(SCc4ccccc4Cl)n2)Cc2c(CO)cnc(C)c2O3)c1", "activity change, negative = cytotoxicity": "inactive: 8.36%"},
      {"smiles": "CCOc1ccccc1NC(=O)c1c(NC(=O)C(C)Oc2ccc(Cl)cc2)sc2c1CCCCC2", "note": "(stereo unspecified)", "activity change, negative = cytotoxicity": "inactive: 16.7%"},
      {"smiles": "Cc1cccc(OCC(=O)Nc2ccccc2OCc2cc(=O)n3ccccc3n2)c1", "activity change, negative = cytotoxicity": "inactive: 1.04%"},
      {"smiles": "CN(C)c1ccc(-n2c(CCC(=O)O)ccc2-c2ccccc2)cc1", "activity change, negative = cytotoxicity": "inactive: 18.7%"},
      {"smiles": "COc1ccc(CC(=O)NCc2ccc3c(c2)CCN3C(=O)c2ccccc2)cc1OC", "activity change, negative = cytotoxicity": "inactive: 2.15%"},
      {"smiles": "COc1ccc(C2=NC(c3ccncc3)=Nc3ccc(Br)cc3N2)cc1", "activity change, negative = cytotoxicity": "inactive: 3.04%"},
      {"smiles": "CCc1cccc(NC(=O)C2CCCN(S(=O)(=O)c3cccs3)C2)c1", "note": "(stereo unspecified)", "activity change, negative = cytotoxicity": "inactive: 22.4%"},
      {"smiles": "CCn1cc(C(=O)N2CCN(c3ccc(F)cc3)CC2)c(=O)c2cc(S(=O)(=O)N(C)C3CCCCC3)ccc21", "activity change, negative = cytotoxicity": "inactive: -0.396%"},
      {"smiles": "CCOC(=O)C1=C(CN2CCCCC2)NC(=O)NC1c1cc(C)ccc1C", "note": "(stereo unspecified)", "activity change, negative = cytotoxicity": "inactive: -13.3%"},
      {"smiles": "CCc1ccc(N2C(=O)CSC23C(=O)N(Cc2ccc(C)cc2)c2ccccc23)cc1", "note": "(stereo unspecified)", "activity change, negative = cytotoxicity": "inactive: 11.1%"},
      {"smiles": "CCCC(CCC)C(=O)Nc1cc(-c2cn3cccnc3n2)ccc1OC", "activity change, negative = cytotoxicity": "inactive: 2.75%"},
      {"smiles": "O=C(c1ccc2c(c1)CCCC2)N1CCN(c2nc3c(F)cccc3s2)CC1", "activity change, negative = cytotoxicity": "inactive: -2.29%"},
      {"smiles": "COc1cc(C(c2c(C)[nH][nH]c2=O)c2c(C)[nH][nH]c2=O)ccc1OC(=O)c1cccc(C)c1", "activity change, negative = cytotoxicity": "inactive: 1.08%"},
      {"smiles": "CCn1cc(C(=O)NCc2ccccc2)c(=O)c2cc(S(=O)(=O)N3CCc4ccccc4C3)ccc21", "activity change, negative = cytotoxicity": "inactive: -9.49%"},
      {"smiles": "CCOC(=O)C1CCCCN1S(=O)(=O)c1csc(C(N)=O)c1", "note": "(stereo unspecified)", "activity change, negative = cytotoxicity": "inactive: 4.31%"},
      {"smiles": "O=C(CSc1nc2c(c(=O)[nH]1)CCC2)Nc1ccccc1C(F)(F)F", "activity change, negative = cytotoxicity": "inactive: 1.12%"},
      {"smiles": "COc1ccc(S(=O)(=O)c2c(C)c(NS(=O)(=O)c3ccccc3)cc(C)c2O)cc1", "activity change, negative = cytotoxicity": "inactive: -4.41%"},
      {"smiles": "COc1ccc(Cn2cc(C(=O)c3ccc(C)cc3)c(=O)c3cc(OC)c(OC)cc32)cc1", "activity change, negative = cytotoxicity": "inactive: -5.55%"},
      {"smiles": "Cc1ccccc1Nc1c(-c2ccc(Cl)s2)nc2cccc(C)n12", "activity change, negative = cytotoxicity": "inactive: -1.22%"},
      {"smiles": "Cn1c(=O)oc2cc(S(=O)(=O)Nc3ccccc3O)ccc21", "activity change, negative = cytotoxicity": "inactive: -0.518%"},
      {"smiles": "CCOc1ccc(NC(=O)CC2C(=O)N(c3ccccc3)C(=O)N2Cc2ccc3c(c2)OCO3)cc1", "note": "(stereo unspecified)", "activity change, negative = cytotoxicity": "inactive: -5.44%"},
      {"smiles": "Cc1ccc(CNC(=O)C2CCN(S(=O)(=O)c3cc(-c4noc(C)n4)ccc3C)CC2)cc1", "activity change, negative = cytotoxicity": "inactive: -24.2%"},
      {"smiles": "Cc1nc2c(-c3ccccc3)c(C)nn2c(C)c1CCC(=O)NCc1ccc(F)cc1", "activity change, negative = cytotoxicity": "inactive: 7.89%"},
      {"smiles": "Cc1c(Cl)cccc1-n1nc(C)c2c(C(=O)NCc3ccccc3)cc(C3CC3)nc21", "activity change, negative = cytotoxicity": "inactive: -4.85%"},
      {"smiles": "Cc1ccc(-c2cc(NC(=O)COc3ccc(Cl)cc3C)on2)cc1", "activity change, negative = cytotoxicity": "inactive: -23.1%"},
      {"smiles": "CCOc1ccc(CCNC(=O)c2cc3c(s2)-c2ccccc2OC3)cc1OCC", "activity change, negative = cytotoxicity": "inactive: 16.1%"},
      {"smiles": "COc1ccc(-c2cc(C(F)(F)F)nc(SCC(=O)N3CCC(C)CC3)n2)cc1", "activity change, negative = cytotoxicity": "inactive: 24.4%"},
      {"smiles": "COc1ccccc1N1CCN(C(=O)CSc2n[nH]c(-c3ccccc3)n2)CC1", "activity change, negative = cytotoxicity": "inactive: 3.9%"},
      {"smiles": "Cc1cc2ccccc2n1-c1ccc(C(=O)N2CCC(C(=O)NCc3ccccc3Cl)CC2)s1", "activity change, negative = cytotoxicity": "inactive: -22.4%"},
      {"smiles": "Cc1ccc(-n2c3c(c(=O)[nH]c2=O)C(NC(=O)c2ccccc2C)(C(F)(F)F)C(=O)N3)cc1", "note": "(stereo unspecified)", "activity change, negative = cytotoxicity": "inactive: 3.44%"}
    ]}
  ]
}
